Experimental data published in the supplement of paper PMC10126150.
Sequences with one replicate were seen in a single cluster, so their values are uncertain.

Test system: ATP
Assay: switch fluorescence ratio, 500 uM ATP over buffer (Cy3 cluster intensity, sum of 5 cycles each) (fold (ratio)); higher = stronger signal-on switching upon ATP binding; sequences stand for … in TCGTCGGCAGCGTCAGATGTGTATAAGAGACAGTTTTTTTTTTTTTTTTTTTTTTTTT…TC
Conditions: aptamer strand: ATP DNA aptamer (quencher-CACCTGGGGGAGTATTGCGGAGGAAGG + anchor), 100 nM annealed; ATP concentration: 500 uM; one replicate
In short: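 Switching-strand clusters labelled with Cy3 on a modified Illumina MiSeq flow-cell were annealed to 100 nM quencher-labelled ATP aptamer, imaged in selection buffer, and re-imaged after 15 min with 500 uM ATP at 22 °C. This was done over five cycles with NaOH stripping and re-annealing in between. The fluorescence ratio is summed target-cycle over summed buffer-cycle Cy3 intensity per cluster, averaged per switch-domain sequence, excluding clusters outside 100-1000 RFU.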
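Further: ATP exposure 15 min at 22 °C before imaging.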

Sequence | switch fluorescence ratio
GAGAGATTCA | 1.02
AGTGTCCCCC | 1.03
TGGTCACTTC | 1.01
CATGTAGTCA | 1.01
CGGCTCCACA | 1.18
ACTTGTACGC | 1.17
ATCTGCCATG | 1.02
CGGTAATGAG | 1.01
AAAATATCTC | 1.02
TCCAAGTCGG | 0.963
AAAGTAATGC | 1.87
ATACAGGCGT | 1.03
TTGTGCCGGA | 1.08
ATGGGAGGA | 0.948
CATATTATCT | 0.941
AACAAAGCCT | 1.31
TCACGGGGT | 0.965
AATATCCGGC | 1.01
GAGGACATGG | 1.18
GATTTATGCT | 1
TATACTCCGC | 2.77
AAGAATGGCA | 1
ACAGTACTCG | 1.35

Sequence | switch fluorescence ratio
TGATAATGGT | 0.99
TCGAAGGAGC | 0.985
TAGTGTAAAC | 0.993
GCGTAAATCG | 0.955
AGAGGGACGC | 0.939
CGTCCTCCCC | 3.57
CCCTTTCAT | 1.08
AATGGCTCTG | 1.04
AGAAGTCTTA | 0.954
CCTGGGGGCG | 1.01
ATCAGAGGGT | 1.02
CGCCGTTACA | 0.988
TGAGCGTGCC | 0.987
ACCTCACTGT | 1.32
CAGTTCTGTG | 0.942
GGCATAGC | 1.01
TATTCGTCGG | 0.993
AATTAACAC | 1.04
GGAGTTGGTG | 0.966
GTGTTATTGG | 0.998
AAAGCGGTA | 1.11
AACCGAAGCG | 1.25
CCTCTAAAGA | 4.26

Sequence | switch fluorescence ratio
CGAAAGATAG | 1.05
GCATGGCAAA | 1.02
ACTGTGGCTT | 1.01
CGGATTTGTC | 0.968
TAGGAGCCCT | 1.02
GGCTGGTATT | 0.993
TACACAGTG | 0.989
GGGTGCCGCA | 1.02
CGGTTACCAT | 0.996
TTGTTGCTGC | 1.07
AGCGGGGAAG | 1.03
AATACTCCCT | 1.22
CCGTGGGGCT | 1.04
AAAGGAACGT | 1.06
TGGATCTAAT | 1.01
GTCCGGGAGT | 0.992
GCGGGATTTT | 0.948
ATTATTGCAT | 1.02
TGAAGAAGCG | 0.988
ATTTAGGAT | 1.01
AACAGGGCCC | 1.02
CCAGCTTCGT | 1.02
GGAAGAGATG | 0.956

Sequence | switch fluorescence ratio
AGATTTAGA | 1.02
ATGTGAGCCG | 0.941
GCCGGAGTCA | 1.02
GAACGGCTGC | 0.979
CTGAAGTGGT | 1.05
GGTTGCTAC | 1.02
ACTGTGACAC | 1.08
GCGCTCAGTA | 1
GCATTTTTGC | 0.905
AGCCTGTGTC | 0.988
GTACCGGCAA | 1.08
TAGATTGGAC | 0.985
AAAACGGACG | 1.06
AGGGGTTTC | 0.993
GGTCGTTTAA | 1.01
AGCTATGTCC | 1.06
AGCGGCGTTT | 0.994
GGGTAGGTTC | 1.08
GGTCCTACAC | 1.11
ACTTCGTC | 1.04
CCCTTGGATG | 1.03
AATGTATTTA | 0.998
TTATACTTTT | 1.02

Sequence | switch fluorescence ratio
CTTGCACTTT | 0.988
TTTCAACAGT | 0.993
ATCCGAGATA | 1.17
ACTCTACCAA | 1.33
ATTGAATGCT | 1.03
GCCTTACGGG | 1.02
AACGCTCGGC | 1.01
TAAGGACGCC | 0.999
CGCCCAGTA | 1.14
TTGTCTTGCG | 1.01
CCAGGTTACG | 1.05
GGGACCGGGG | 0.982
TGGTGGATAT | 1.03
GGATCGGTTC | 1.02
TCCGGAGAGT | 1.81
ACGGTGAGGA | 1.01
CTTGGTGTG | 0.984
ACGTTTCTGT | 0.987
CAGGCAAACC | 1.09
TGGGTCCGAT | 0.969
GAGTCGCCGC | 0.976
ATCTCCTATG | 0.985
TAGCTGTAAC | 1.09

Sequence | switch fluorescence ratio
CGTCCACCCA | 1.05
TTTCGATCGC | 1.21
GACGAAGGTA | 1.02
TAAGCCTGAG | 1.22
ATCAGGTTTG | 1.01
TAAAGCTACC | 1.51
GAACCGTTTG | 1.04
CAGTTTTTT | 1
TTATCATTTT | 0.957
GTGTGGCGAC | 0.934
TAGCGTAGTT | 1.02
CGAACCTGTT | 0.976
GCCATTCTTT | 0.964
AGGCAATCGA | 1.35
GGCTCGTAGC | 0.956
CGCACGAGGT | 1.05
CGGAAGTGTT | 0.98
ACAGCGGGTT | 1.03
GAAGCATTTA | 1.19
CTTCTTACTT | 0.99
ATGGATACCC | 1.02
GGTTGATATC | 1.02
CGGAGGACTA | 1.02

Sequence | switch fluorescence ratio
ATCCATTTTC | 0.985
CGGAGTGATG | 1.12
CTGGAACAGA | 0.972
CCACTCCGTT | 1.24
CCTTTTACAG | 0.997
GCACTTGGTT | 1.05
CTAGTTTGCC | 0.992
AGTCCACCAA | 1.06
GGTAACTGCA | 1.06
CATATGAGCG | 1.03
TACTTAACAC | 1.08
CCCACACAAT | 2.72
GAAAGGGAGT | 0.951
TATTACGTGC | 1.02
TCATTGATAT | 1.04
TTGCCCGACT | 1
GTGTGCAAAG | 0.908
AGTAGCCGCC | 1.01
AAAGGGAATG | 1.01
